Results: paper PMC4336329 (PLoS ONE, 2015)
Among all 310,000 compounds or so, about 2,200 (0.71%) showed an effect of 50% or more. Effects have a minus sign here. Some of the results follow.

target: human ether-à-go-go-related gene (hERG) potassium channel (human, UniProt Q12809); experiment: primary screen, population patch clamp on CHO cells stably expressing hERG
Sequence (Q12809 whole entry, looked up): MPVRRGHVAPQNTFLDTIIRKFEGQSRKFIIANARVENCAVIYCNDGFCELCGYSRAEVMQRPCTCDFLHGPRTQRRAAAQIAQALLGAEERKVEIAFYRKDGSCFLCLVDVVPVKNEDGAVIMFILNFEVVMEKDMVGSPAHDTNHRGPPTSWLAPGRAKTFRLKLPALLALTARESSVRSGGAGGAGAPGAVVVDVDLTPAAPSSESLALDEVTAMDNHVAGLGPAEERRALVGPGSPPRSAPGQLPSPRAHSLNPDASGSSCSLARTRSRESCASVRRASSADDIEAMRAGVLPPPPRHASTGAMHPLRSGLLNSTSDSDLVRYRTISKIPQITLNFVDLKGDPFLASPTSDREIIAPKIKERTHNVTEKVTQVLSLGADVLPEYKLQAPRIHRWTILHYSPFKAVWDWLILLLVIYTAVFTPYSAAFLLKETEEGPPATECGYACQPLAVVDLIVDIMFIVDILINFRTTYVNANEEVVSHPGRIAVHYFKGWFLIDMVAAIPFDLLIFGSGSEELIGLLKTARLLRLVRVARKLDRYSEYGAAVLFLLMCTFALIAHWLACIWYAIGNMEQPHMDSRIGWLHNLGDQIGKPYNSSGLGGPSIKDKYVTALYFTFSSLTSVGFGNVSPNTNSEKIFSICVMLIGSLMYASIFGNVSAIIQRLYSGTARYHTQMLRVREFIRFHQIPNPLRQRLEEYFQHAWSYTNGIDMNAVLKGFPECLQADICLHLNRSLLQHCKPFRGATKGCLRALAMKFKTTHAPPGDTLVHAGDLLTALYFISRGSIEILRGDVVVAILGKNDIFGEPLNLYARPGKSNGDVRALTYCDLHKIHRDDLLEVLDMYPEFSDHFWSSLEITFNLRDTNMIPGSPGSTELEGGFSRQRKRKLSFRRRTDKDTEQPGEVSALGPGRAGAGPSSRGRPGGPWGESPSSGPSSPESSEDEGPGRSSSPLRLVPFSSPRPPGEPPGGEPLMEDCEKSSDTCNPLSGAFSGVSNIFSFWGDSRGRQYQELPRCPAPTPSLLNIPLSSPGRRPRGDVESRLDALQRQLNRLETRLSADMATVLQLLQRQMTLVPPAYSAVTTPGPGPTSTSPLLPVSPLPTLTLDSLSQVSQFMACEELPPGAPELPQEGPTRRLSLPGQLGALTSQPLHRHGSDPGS

Row | SMILES | hERG current change (%, negative = inhibition) at 1uM [%]
1 | c1ccc(CSc2ncnc3ccccc23)cc1 | 7.32
2 | C=CCNC(=O)/C(=C\C=C\c1ccccc1)NC(=O)c1ccccc1Cl | -1.9
3 | COc1ccc(OCC(=O)O/N=C(\N)c2ccc(OC)c(OC)c2)cc1 | 11.7
4 | CC1(C(=O)O)COC(c2ccc([N+](=O)[O-])cc2)OC1 (stereo not drawn) | 2.26
5 | CCOC(=O)c1[nH]c(C)c(C(=O)NCCCN2CCOCC2)c1C | -6.95
6 | O=C(NCCn1c(-c2ccncc2)nc2ccccc21)[C@H]1CCCN1c1nc(CN2CCCCC2)cs1 | 12.3
7 | CC(=O)N1CCc2cc(S(=O)(=O)NCCC(=O)Nc3ccc4c(c3)OCCO4)ccc21 | 10.4
8 | Cc1ccc(S(=O)(=O)NCCc2cn3nc(C)c(C)nc3n2)cc1C | 27.3
9 | O=C(NN1CCOCC1)c1cccc(Br)c1 | 18.8
10 | COc1ccc(-c2csc3ncnc(N4CCN(S(=O)(=O)c5ccc(C)c(C)c5)CC4)c23)cc1 | 18.8
11 | CCOc1ccc(NC(=O)CN2CCCC2c2cccs2)cc1S(=O)(=O)N1CCCC1 (stereo not drawn) | 1.57
12 | O=c1c2[nH]c3ccc(F)cc3c2ncn1CCCN1CCOCC1 | 2.42
13 | OCCN(Cc1ccccc1)Cc1ccc(Cl)cc1 | -5.13
14 | Cc1cc(C(=O)NC2CCCN(Cc3ccc(Cl)cc3)C2)c(C)o1 (stereo not drawn) | 2.95
15 | C/C(=N\NC(=O)c1ccc(C)cc1C)c1ccc2c(c1)Nc1ccccc1S2 | 15.7
16 | O=C(Nc1ccccc1C(F)(F)F)c1cc2ncc(CCCl)cn2n1 | -3.99
17 | CCOC(=O)C1CCN(C(=O)c2c(C)oc3c2C(=O)c2ccccc2C3=O)CC1 | 2.38
18 | O=C(c1cccc(C(F)(F)F)c1)C1CCCN(C(=O)Cn2cncn2)C1 (stereo not drawn) | 11.6
19 | CCOc1ccc(Br)cc1/C(C)=N\NC1=NCCN1.Cl | -15.5
20 | O=C(Nc1cccc(S(=O)(=O)N2CCCC2)c1)c1cc(-c2ccccn2)nc2ccccc12 | 5.82
21 | O=C(COC(=O)c1cccc(C(F)(F)F)c1)NCc1ccc(Cl)cc1 | 7.56
22 | Nc1c(Cl)cc(Cl)cc1C(=O)OCC(=O)N1CCOCC1 | -0.979

Row | SMILES | hERG current change (%, negative = inhibition) at 1uM [%]
23 | CC(=O)N1CCOc2ccc(S(=O)(=O)NC(C)c3ccccc3)cc21 (stereo not drawn) | 6.21
24 | CN1C(=O)C(CC(N)=O)N(NC(=O)c2ccc(Cl)cc2)C1=S (stereo not drawn) | 18.3
25 | Cc1ccc(C)c(NC(=O)CN(C)C(=O)c2ccccc2OCc2ccc(Cl)cc2)c1 | 6.83
26 | CC(=O)c1sc(N/N=C/c2cccc(O)c2)nc1C | 17.4
27 | COc1cc(CC(NC(C)=O)C(=O)NC2CCN(C(=O)Nc3ccccc3Cl)CC2)cc(OC)c1 (stereo not drawn) | 7.01
28 | CC(C)(C)CNc1cc(N2CCCC2)ccc1[N+](=O)[O-] | 10.6
29 | CCOC(=O)C1(Cc2ccccc2C)CCCN(C(=O)CSC)C1 (stereo not drawn) | 11
30 | CCc1ccc(NC(=S)N2CCCC(C(F)(F)F)C2)cc1 (stereo not drawn) | 9.26
31 | CC(C)CC1NC(=O)N(CC(=O)Nc2ccc3c(c2)OCCO3)C1=O (stereo not drawn) | 4.14
32 | Cc1cc(C)cc(NS(=O)(=O)c2cccs2)c1 | 13.4
33 | Cc1ccc(-c2cc(-c3ccccc3O)nc(N/N=C/c3cccnc3)n2)cc1 | 11.9
34 | Cc1cccc(N=Nc2c(O)[nH]c3ccc(F)cc23)c1 | 10.1
35 | COc1cc(CN2CCCC(C(=O)c3ccc(C(C)(C)C)cc3)C2)cc(OC)c1O (stereo not drawn) | 8.68
36 | O=C(NC(=S)Nc1cccc(O)c1)c1ccco1 | 13.8
37 | Cl.c1csc(COc2ccccc2CNC2CCCCC2)c1 | 6.25
38 | Cc1ccc(N2C(=O)S/C(=C/c3cn(C)c4ccccc34)C2=O)cc1 | 8.54
39 | Cc1ccccc1CC(=O)NC1CCN(Cc2ccccc2)CC1 | 7.22
40 | CCc1cc2c(=O)n(Cc3ccco3)c(SCC(=O)NC3CCS(=O)(=O)C3)nc2s1 (stereo not drawn) | -29.7
41 | CCOc1cccc(-c2cc(C(=O)N3N=C(C)CC3(O)C(F)F)c3ccccc3n2)c1 (stereo not drawn) | 3.65
42 | O=C1COc2ccc(S(=O)(=O)NCc3ccc(Cl)cc3)cc2N1 | 4.7
43 | COc1ccccc1C(=O)NC(=O)COC(=O)c1ncc(Cl)c(Cl)c1Cl | 4.21
44 | COC(=O)c1ccccc1-c1ccc(/C=N/NC(N)=O)o1 | -1.65

Row | SMILES | hERG current change (%, negative = inhibition) at 1uM [%]
45 | Cn1ccnc1C1CCCCN1Cc1nc(-c2ccc(Cl)cc2)no1 (stereo not drawn) | -0.373
46 | Cc1cc(C(=O)O)ccc1-c1ccc(/C=C2\NC(=O)N(Cc3ccc(F)cc3)C2=O)o1 | 13.7
47 | CC1CCCCC12NC(=O)N(Cn1nnc3ccccc3c1=O)C2=O (stereo not drawn) | 9.04
48 | CCOc1ccc(NC(=O)CNC(=O)c2nn(-c3ccc(OC)c(OC)c3)c(=O)c3ccccc23)cc1 | 10.8
49 | CC(CN(C)Cc1ccccc1)OC(=O)c1cccc(F)c1.Cl (stereo not drawn) | 12.1
50 | COC(=O)c1ccc2nc(-c3ccc4c(c3)OCO4)cn2c1 | 10.4
51 | O=C(NCC1CCCCC1)c1cccc(S(=O)(=O)NCc2cccnc2)c1 | 6.63
52 | CC1CC(C)CN(C(=O)COC(=O)CNC(=O)C23CC4CC(CC(C4)C2)C3)C1 (stereo not drawn) | 19.7
53 | O=C(CCS(=O)(=O)c1cccc2nsnc12)N1CCN(C(=O)c2ccco2)CC1 | 10.3
54 | CN(C)CCCN1c2ccccc2Sc2ccccc21.Cl | 11.2
55 | O=C(COc1ccc(Cl)cc1Cl)N(Cc1ccco1)C1CCS(=O)(=O)C1 (stereo not drawn) | 2.11
56 | CC(=O)Oc1ccc2c(c1)OC(c1ccccc1)CC21CC(C)(C)NC(=S)N1 (stereo not drawn) | -3.13
57 | Cc1ccc(N=Nc2c(C)[nH]n(-c3ccccc3)c2=O)c(C)c1 | 15
58 | CC(C)(C)C(=O)Nc1sc2c(c1-c1nc3ccccc3[nH]1)CCCC2 | 2.22
59 | COc1ccc(C(=O)/C=C/C(=O)N(Cc2ccccc2)C(C(=O)NC2CCCCC2)c2ccncc2)c(O)c1 (stereo not drawn) | 2.62
60 | Cc1cc(C(=O)NNC(=O)/C=C/c2ccc(F)cc2)c(C)o1 | -1.32
61 | N#Cc1ccc(C(=O)NCC(c2ccco2)N2CCCCC2)cc1 (stereo not drawn) | -21.1
62 | O=C(NCCO)c1nc(C(=O)c2ccccc2)c2ccccc2n1 | 14.9
63 | Cc1ccc(N2C(=O)CC(Sc3ncccc3C(=O)O)C2=O)cc1 (stereo not drawn) | 11.8
64 | C/C(=N\NC(=O)c1nnn(-c2nonc2N)c1CN(C)C)c1ccco1 | 2.61
65 | CCOC(=O)C1CCCN(c2cc(C)nc3cc(-c4ccc(Cl)cc4)nn23)C1 (stereo not drawn) | 12
66 | Cc1ccccc1NC(=O)c1cccc(N2C(=O)C3CCCCC3C2=O)c1 (stereo not drawn) | 19.5

Row | SMILES | hERG current change (%, negative = inhibition) at 1uM [%]
67 | CCOC(=O)c1c(C)[nH]c(C(=O)COC(=O)C23CC4CC(CC(Cl)(C4)C2)C3)c1C | 12.1
68 | CCOC(=O)c1ccccc1-c1cn2cc(Cl)ccc2n1 | -4.73
69 | CCOC(=O)C1=C(C)OC(N)=C(C#N)C1c1cc(OC)c2c(c1)OCO2 (stereo not drawn) | -9.98
70 | Cc1ccc(NC(=O)COC(=O)c2ccc(F)cc2Cl)c(Br)c1 | 13.7
71 | COc1cccc(CNc2ccc(F)c([N+](=O)[O-])c2)c1O | 10.7
72 | Nc1nonc1-n1nnc(C(=O)N/N=C/c2ccc(Cl)cc2Cl)c1CN1CCOCC1 | 11.1
73 | O=C(NNC(=O)c1cccc(-n2cccc2)c1)c1ccccc1 | 5.81
74 | CCOC(=O)c1sc(NC(=O)CSc2nnnn2-c2ccc(C)c(C)c2)nc1C | 9.56
75 | COc1cccc(NC(=O)Cn2cnc3sc(C)c(S(=O)(=O)N4CCN(C)CC4)c3c2=O)c1 | 19.5
76 | COc1cccc(C(=O)NCc2ccc3[nH]c(C)cc3c2)c1 | 18.8
77 | CC(=O)c1ccc(NC(=O)Cn2nc(C)cc2C)cc1 | -24.4
78 | Cc1cccc2[nH]c(CN(C)C(=O)C3CCC(=O)N(CCc4ccccc4)C3)nc12 (stereo not drawn) | 12.6
79 | O=c1[nH]c2ccccc2n1CCCN1CCC(n2c(=O)[nH]c3cc(Cl)ccc32)CC1 | -46.8
80 | C=CCNC(=O)/C(=C/c1cccc([N+](=O)[O-])c1)NC(=O)c1ccco1 | -5.53
81 | COC(=O)C1=C(C)NC(C)=C(C(=O)OC)C1C(=O)OCC(=O)Nc1ccc(C(C)=O)cc1 | 11.7
82 | CN(Cc1ccco1)C(=O)c1ccc(S(=O)(=O)N2CCCCCC2)cc1 | -2.6
83 | COc1cc(C(=O)Nc2cccnc2)cc(OC)c1OC | 9.52
84 | CCOc1c(Br)cc(C2CC(=O)Nc3cc(OC)c(OC)cc32)cc1OC (stereo not drawn) | 13.2
85 | Cc1ccn2c(=O)c(NC(=O)COc3ccccc3)c(C)nc2c1 | -17.4
86 | Cc1cc(=O)n(C)c(=O)n1CCCCOc1ccc([N+](=O)[O-])cc1 | -66.8
87 | C=CCn1c(SCC(=O)Nc2ccc(F)cc2)nc2ccccc2c1=O | 3.19
